Measured values from PubChem BioAssay AID759 (NMMLSC, 2007).
Screen size: about 190,000 compounds; about 270 (0.14%) were called active. The inconclusive results got no clear call from the source; some entries with a clear call stand among them for comparison.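 Rule for the calls: active = GTP binding activity at least 20% away from the 100% baseline, either lowered as inhibitor or raised as activator; inconclusive = flagged as likely green fluorescent, judged across all proteins in the well; inactive = the rest.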

target: GTPase HRas (Homo sapiens) (UniProt P01112); assay: HRas wt fluorescent GTP binding changes, either direction – biochemical, wildtype, bead-based flow cytometry, multiplex, primary screen (AID 759); settings: GST-Ras wt beads, Bodipy-FL-GTP binding, at 10 µM, actives lie on both sides;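 note: 0% = unlabeled GTP competition control and 100% = no-compound control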
Chain of UniProt P01112 (P01112 whole entry, looked up): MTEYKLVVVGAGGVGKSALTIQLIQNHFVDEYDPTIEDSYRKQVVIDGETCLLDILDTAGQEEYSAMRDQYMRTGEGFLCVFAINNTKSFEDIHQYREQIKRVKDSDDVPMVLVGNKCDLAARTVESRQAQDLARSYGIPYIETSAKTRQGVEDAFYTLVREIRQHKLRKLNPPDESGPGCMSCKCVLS

| SMILES | GTP binding activity |
| --- | --- |
| O=C1NC(=O)C(C/C=C/c2ccccc2)C(=O)N1 | inconclusive: 106% |
| Cc1cc(C)cc(N2C(=O)NC(=O)/C(=C\c3cc(C)n(C)c3C)C2=O)c1 | inconclusive: 93% |
| CCCCn1c(O)c(C(C)=NCc2ccc(F)cc2)c(=O)[nH]c1=O | inconclusive: 103% |
| O=C(c1ccc(N2CC3CC(C2)c2cccc(=O)n2C3)c([N+](=O)[O-])c1)N1CCCC1 (configuration not stated) | inactive: 99% |
| CC(C)(C)C(=O)OCC12CCC(O1)C1(C)C(=O)OCC21 (configuration not stated) | inconclusive: 101% |
| COCCN1Cc2cc(=O)n3c([nH]c4ccccc43)c2C1=N | inconclusive: 91% |
| CCN(CC)CCNCC(=O)Nc1ccc(Cl)cc1C(=O)c1ccccc1 | inconclusive: 105% |
| CCc1nc2ccccc2c(=O)n1-c1ccccc1[N+](=O)[O-] | inconclusive: 102% |
| COc1ccc(CNC(C)Cc2cccs2)cc1 (configuration not stated) | inactive: 96% |
| COc1cc2c(cc1O)CC1c3c(cc(O)c(OC)c3-2)CCN1C (configuration not stated) | inconclusive: 89% |
| Cc1cccnc1-n1c(-c2ccccc2)nc2ccccc2c1=O | inconclusive: 107% |
| O=C(CNS(=O)(=O)c1ccc(Br)s1)N1CCC2(CC1)OCCO2 | inconclusive: 106% |
| CCN(CC)C(=O)c1ccc(NC(=O)c2cccc(F)c2)cc1 | inconclusive: 101% |
| CN1C2CCC1CC(OC(=O)c1cc(Cl)cc(Cl)c1)C2 (configuration not stated) | inactive: 97% |
| CC(=NCc1ccc2c(c1)OCO2)c1c(O)n(C)c(=O)n(C)c1=O | inconclusive: 92% |
| Cc1cc(/C=C2\C(=O)NC(=O)N(c3ccc(Cl)cc3)C2=O)c(C)n1-c1sc2c(c1C#N)CCCC2 | inactive: 94% |
| CN1CSC(=S)N(C)C1 | inconclusive: 95% |
| CN(C)c1ccc(/C=C/C=C2/C(=O)NC(=O)N(c3ccccc3)C2=O)cc1 | inactive: 81% |
| Cc1cccc(-n2c(O)c(/C=N/Nc3nc4c(c(=O)n(C)c(=O)n4C)n3C)c(=O)[nH]c2=S)c1 | inconclusive: 88% |
| N=c1c2c(n(Cc3ccc(Cl)cc3Cl)c3c1CCC3)CCCC2 | inconclusive: 103% |
| Cc1cc(/C=C2\C(=O)NC(=O)N(c3cccc(F)c3)C2=O)c(C)n1-c1cc(C(=O)O)cc(C(=O)O)c1 | inconclusive: 87% |
| CN(C)C(=O)Oc1ccc(Cl)c2ccccc12 | inconclusive: 102% |
| COc1cc(/C=C/C(=O)c2c(O)n(CCc3ccccc3)c(=O)[nH]c2=O)ccc1O | inactive: 94% |
| O=c1cccc2n1CC1CC2CN(S(=O)(=O)c2ccccc2)C1 (configuration not stated) | inconclusive: 106% |
| CCCCn1c(O)c(C(CC)=NCCCN(C)C)c(=O)[nH]c1=O | inconclusive: 101% |
| O=c1[nH]c(O)c(N=Nc2cc(C(F)(F)F)ccc2Cl)c(=O)[nH]1 | inconclusive: 90% |

| SMILES | GTP binding activity |
| --- | --- |
| CSCc1nnc2n1-c1ccc(Cl)cc1C(c1ccccc1)=NC2 | inactive: 96% |
| CC(C)c1ccc(N2C(=O)NC(=O)/C(=C\c3cnc(-c4ccccc4)nc3)C2=O)cc1 | inconclusive: 90% |
| CN1C(=O)N(C)C(=O)C2(Cc3c(ccc4ccccc34)N(C)C2)C1=O | inactive: 96% |
| COc1cccc(-n2c(O)c(C=NCCN3CCOCC3)c(=O)[nH]c2=O)c1 | inconclusive: 104% |
| Cc1ccc(C(=O)n2cc(CCN3CCS(=O)(=O)CC3)c3ccccc32)cc1 | inconclusive: 97% |
| Cc1c(C=O)c2ccccc2n1Cc1ccc(F)cc1 | inconclusive: 96% |
| COc1ccc(CCNCc2ccccn2)cc1OC | inconclusive: 105% |
| O=C(C1CC(=O)N(C2CCCC2)C1)N1CCC2(CC1)OCCO2 (configuration not stated) | inconclusive: 105% |
| CC(C)Sc1nnc([C@@H](N)Cc2c[nH]c3ccccc23)o1 | inconclusive: 93% |
| CCOc1ccc(N2C(=O)/C(=C\c3cccs3)C(=O)NC2=S)cc1 | inconclusive: 90% |
| CCC1(c2ccccc2)C(=O)N(C)C(=O)N(C)C1=O | inconclusive: 92% |
| O=C(CSc1ccccc1)N1CCC2(CC1)OCCO2 | inconclusive: 105% |
| Nc1ccc(C2(c3ccc(N)cc3)CN3CCC2CC3)cc1 | inconclusive: 104% |
| CSc1ncc(Cl)c(C(=O)O)n1 (tested in a mixture with another compound) | inactive: 102% |
| O=C1CN=C(c2ccccc2)c2cc(Br)ccc2N1Cc1cc(=O)n2ccccc2n1 | inconclusive: 170% |
| Cc1ccc(-c2nc3ccccc3c(=O)n2-c2cc(C)ccn2)cc1 | inconclusive: 95% |
| Cc1nn(Cc2ccccc2)c(Cl)c1C(=O)O | inconclusive: 119% |
| C=Cn1ccnc1P(=S)(c1nccn1C=C)C1CCCCC1 | inconclusive: 93% |
| C/C(=N\N1CCN(C)CC1)c1c(O)[nH]c(=O)[nH]c1=O | inactive: 102% |
| CC(Oc1ccc(-c2ccccc2)cc1)C(=O)O (configuration not stated) | active: 137% [activator] |
| COCCOC(=O)c1c(C)n(C)c2ccc(OC(=O)N(C)C)cc12 | inactive: 103% |
| CC(C)n1c(=O)c(C=Nc2ccc(F)cc2)c(O)n(Cc2ccco2)c1=O | inactive: 100% |
| Cc1nn(Cc2ccccc2Cl)c(C)c1C(=O)NC1CCCc2ccccc21 (configuration not stated) | inactive: 96% |
| CC(C)N1C(=O)CCC1C(=O)N1CCC2(CC1)OCCO2 (configuration not stated) | inconclusive: 93% |
| Cc1nnc(SCc2nc3ccccc3c(=O)n2-c2ccccc2Cl)n1N | inconclusive: 107% |
| Nc1ccc(Br)cc1C(=O)c1ccccc1 | inconclusive: 89% |

| SMILES | GTP binding activity |
| --- | --- |
| COc1cc2c(cc1OC)C(C(=O)N1CCC3(CC1)OCCO3)C(c1ccccc1F)N(C)C2=O (configuration not stated) | inconclusive: 100% |
| c1cncc(C2CC(c3cccs3)n3ncnc3N2)c1 (configuration not stated) | inactive: 100% |
| CCOc1ccc(C2SCC(=O)Nc3c2c(C)nn3C2CCOC(C)(C)C2)cc1 (configuration not stated) | active: 73% |
| CCN(CC)P(=O)(c1n(CC)cc[n+]1CC)N(CC)CC | inactive: 102% |
| O=C(c1ccco1)c1cn(Cc2ccc(Cl)cc2)c2ccccc12 | inconclusive: 102% |
| Nc1c(C(=O)NCc2ccco2)c2nc3ccccc3nc2n1CCN1CCCCC1 | inconclusive: 91% |
| Cc1sc2ncn(CC(=O)N3CCC4(CC3)OCCO4)c(=O)c2c1C | inconclusive: 105% |
| C=CCN1C(=O)/C(=C/c2ccc3c(c2)CCCN3CCC)C(=O)NC1=S | inconclusive: 91% |
| CSc1ncc(/C=C2/C(=O)NC(=O)N(c3ccc(Cl)cc3)C2=O)cn1 | inactive: 98% |
| CCC(C)NC(=O)c1c(N)n(CCCOC)c2nc3ccccc3nc12 (configuration not stated) | inactive: 99% |
| CC(=NCc1ccc(F)cc1)c1c(O)n(C)c(=O)n(C)c1=O | inconclusive: 104% |
| Cc1nn(Cc2ccccc2)c(C)c1C(=O)OCC(=O)Nc1cccc(S(N)(=O)=O)c1 | inconclusive: 98% |
| CN1CC=C(c2c[nH]c3ccccc23)CC1 | inconclusive: 103% |
| COc1ccc(-c2cc(=NCCCCCC(=O)O)c3cc(C)ccc3o2)cc1 | active: 73% |
| COc1ccc(-c2cc(=NCCC(=O)O)c3cc(C)ccc3o2)cc1 | inconclusive: 86% |
| O=C1NC(=S)N(Cc2ccco2)C(=O)/C1=C\c1cccs1 | inconclusive: 80% |
| c1ccc2oc(N3CCNCC3)nc2c1 | inconclusive: 105% |
| COc1cc(C(=S)N2CCOCC2)cc(OC)c1OC(=O)Cc1ccccc1 | inconclusive: 96% |
| O=C(COc1ccc(Br)cc1)N1CCN(C2CCCC2)CC1 | inconclusive: 104% |
| Cc1ccc(NP(=O)(Oc2ccccc2F)Oc2ccccc2F)cc1 | inconclusive: 107% |
| Cc1ccccc1NC1(C#N)CCCCC1 | inconclusive: 90% |
| Cc1ccc(-n2c(O)c(C=NC3CCCC3)c(=O)[nH]c2=O)c(C)c1 | inconclusive: 104% |
| CCCCCCN1CCN(c2ccc(Cl)cc2)CC1 | inconclusive: 95% |
| COc1cc2c(C(=O)O)c(C)n(C)c2cc1Br | inconclusive: 93% |
| O=P(Nc1cccnc1)(Oc1ccccc1Cl)Oc1ccccc1Cl | inconclusive: 96% |
